# Test results reported in patent publication US7385023B1, “Cancer immunotherapy and diagnosis using cytochrome P450 1B1” (Trustees of Boston University, priority 2000, dated 2008).
# Where two headings read alike, the source gives them in different places.
# How the values were obtained:
# [1] = target: HLA-A3 (Homo sapiens, UniProt P04439); assay: Binding assay of peptides to T2 cells transfected with HLA-A3; settings: for FI class I: PBS 15.3
# [2] = target: HLA-A3 on T2 cells transfected with HLA-A3; assay: peptide binding to T2 cells transfected with HLA-A3, class I staining
# [3] = target: HLA-A3 on T2 cells transfected with HLA-A3
# [4] = target: HLA-A3 on T2 cells transfected with HLA-A3; assay: peptide binding to T2 cells transfected with HLA-A3, class I staining (PBS background 15.3)
FI [1],binding to HLA-A3 [1],FI class I [1],FI [2],FI class I [4],Molecule,FI class I [3]
0.12,repeatedly bound to HLA-A3,17.2,–,–,SMMRNFFTR [CYP150],–
0.10,–,16.8,–,–,GLINKDLTSR [CYP450],–
0.07,–,16.4,–,–,GLTIKPKSFK [CYP508],–
0.10,repeatedly bound to HLA-A3,16.9,–,–,SVLGYHIPK [CYP408],–
0.27,repeatedly bound to HLA-A3,19.5,–,–,FLDKDGLINK [CYP445],–
–,–,–,0.12,17.2,SMMRNFFTR [CYP150 peptide from cytochrome P450 1B1 (…)],–
–,–,–,0.27,19.5,FLDKDGLINK [CYP445 peptide from cytochrome P450 1B1 (…)],–
–,–,–,0.1,16.9,SVLGYHIPK [CYP408 peptide from cytochrome P450 1B1 (…)],–
–,–,–,0.1,16.8,GLINKDLTSR [CYP450 peptide from cytochrome P450 1B1 (…)],–
–,–,–,0.07,16.4,GLTIKPKSFK [CYP508 peptide from cytochrome P450 1B1 (…)],–

Molecule,FI [1],binding to HLA-A3 [1],FI class I [1],FI [2],FI class I [4],FI class I [3]
Flu-MP58 (peptide),–,–,–,1.27,–,34.8
